# “And” between values parts separate entries of the source, which are not always exact repeats. Equal values may be shown once. The campaign covered roughly 54,000 compounds. About 120 (0.22%) were called active. The shares of active, inactive and inconclusive entries below differ from those in the screen. The call rests on the fitted dose curve; in most records, active means well fitted inhibition curve with a large enough effect; inconclusive means small, poorly fitted or top-dose-only effect, or effect the other way; inactive means flat fitted curve, though single readings scatter. A potency beside an inconclusive call is a rough fit, not a confirmed value. Some compounds were tested as several samples or in several runs, with calls that do not always agree.
# Target: Fumarate hydratase, mitochondrial (Homo sapiens) (UniProt P07954)
# UniProt P07954, sequence (P07954 whole entry, looked up): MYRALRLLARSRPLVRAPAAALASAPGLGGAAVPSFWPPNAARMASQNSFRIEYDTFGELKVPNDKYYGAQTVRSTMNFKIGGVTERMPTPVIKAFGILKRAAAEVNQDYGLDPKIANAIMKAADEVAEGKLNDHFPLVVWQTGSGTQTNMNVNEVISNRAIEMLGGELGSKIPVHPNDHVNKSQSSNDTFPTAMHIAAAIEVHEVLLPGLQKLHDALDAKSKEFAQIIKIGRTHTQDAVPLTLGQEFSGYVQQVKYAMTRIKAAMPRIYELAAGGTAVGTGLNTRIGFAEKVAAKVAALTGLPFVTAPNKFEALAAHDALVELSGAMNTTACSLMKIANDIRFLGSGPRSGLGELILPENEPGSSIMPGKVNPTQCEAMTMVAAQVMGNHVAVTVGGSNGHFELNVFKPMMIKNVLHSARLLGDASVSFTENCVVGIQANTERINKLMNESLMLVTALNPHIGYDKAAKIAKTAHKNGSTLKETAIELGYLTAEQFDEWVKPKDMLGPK
# Experiment: Identification of activators of human fumarate hydratase by quantitative high-throughput screening; further: the screen sought activators but most active calls are inhibition curves; nearly all actives have a fitted effect of over 45% in size
# Conditions: FH coupled MDH/diaphorase resazurin fluorescence, 15 min; activity change, negative = inhibition: at 79.9 µM (top of the series)
# On the % scale 0 is the no-effect control and ±100 the full control effect; potency means the concentration at half of the fitted maximal effect; tags describe the fitted curve by direction and shape.
Compound,Potency,"activity change, negative = inhibition"
Cc1ccc2[nH]cc(C(c3ccccc3)c3ccc(Cl)s3)c2c1 (stereo not given),"inconclusive: 31.6 µM [inhibitor, partial curve, poor fit]",–
O=C(Nc1ccc(F)c(F)c1)C(c1ccccc1)N1Cc2ccccc2C1=O (stereo not given),–,inconclusive: -39.2% [inhibitor]
Cc1ccccc1OCCSc1nnc(-c2cccs2)o1,"inconclusive: 25.1 µM [inhibitor, partial curve, poor fit]",–
CC1(C)C[C@@H]2[C@H](C1)[C@@]1(C)C[C@]13C(O)OC[C@]3(O)[C@H]2O (stereo not given in full),inactive,–
Cc1ccc(Cl)cc1-n1ncc2c(Nc3ccc4c(c3)OCCO4)ncnc21,"inconclusive: 31.6 µM [inhibitor, partial curve, poor fit]",–
COc1ccc(CNC(=O)c2cc3cccc4c3n2CC(C)S4)cc1OC (stereo not given),"inconclusive: 28.2 µM [inhibitor, single point]",–
Cc1ccc(CNS(=O)(=O)c2ccc3[nH]c4c(c3c2)CCCCC4)cc1,inactive,–
Cn1cc(-c2cc(Oc3cc(F)c(NC(=O)C4(C(=O)Nc5ccccc5)CC4)cc3F)ccn2)cn1,"inconclusive: 50.1 µM [inhibitor, single point]",–
CC(C)c1ccc2c(c1)c(SC(C)(C)C)c(CC(C)(C)C(=O)O)n2Cc1ccc(Cl)cc1,"inconclusive: 12.6 µM [inhibitor, partial curve]",–
CCOC(=O)NNc1nncc2ccccc12,inactive,–
Cc1cc(C)cc(C(=O)Nc2ccc(-c3cn4cccnc4n3)cc2)c1,inactive,–
COC1CC/C=C(\C)C(=O)Nc2cc(O)cc(c2)CC(C)CC(OC)C(O)C(C)/C=C(\C)C1OC(N)=O (stereo not given),inactive,–
CC(C)c1cccc(C(C)C)c1NC(=O)Nc1ccc(Sc2ccc([N+](=O)[O-])cc2)cc1,inactive,–
CCCC1=CC2=C(CO1)C(=O)C(C)(OC(=O)c1c(C)cc(OC)cc1O)C(O)C2 (stereo not given),inactive,–
CCn1c(=O)c2cc(C(=O)N(C)c3cc(C)ccc3C)sc2c2ccccc21,"inconclusive: 44.7 µM [inhibitor, partial curve, poor fit]",–
COc1ccc(CCNC(=O)CSc2cn(CCNC(=O)c3ccc(OC)c(OC)c3)c3ccccc23)cc1OC,inactive,–
Cc1ccc(NC(=O)CN2C(=O)C(C)(C)c3cc(S(=O)(=O)N4CCCCC4)ccc32)c(Br)c1,"inconclusive: 35.5 µM [inhibitor, single point]",–
CCOC(=O)[C@H](CCc1ccccc1)CC1(C(=O)N[C@H]2CCc3ccccc3N(CC(=O)O)C2=O)CCCC1,inactive,–
CCN1CCN(c2cc(C)c3cc(NC(=O)c4cc(OC)cc(OC)c4)ccc3n2)CC1,inactive,–
O=C(CC1N=C2c3ccccc3N=C(SCc3ccccc3Cl)N2C1=O)NC1CCCCC1 (stereo not given),–,inconclusive: -59.7% [inhibitor]
COc1cc(-c2nc3sccn3c2Nc2cccc(C)c2)ccc1O,"inconclusive: 35.5 µM [inhibitor, single point]",–
Cc1cc2c(F)c(Oc3ncnn4cc(OCC(C)OC(=O)C(C)N)c(C)c34)ccc2[nH]1 (stereo not given),inactive,–

Compound,Potency,"activity change, negative = inhibition"
COc1ccc(Cn2cc(C(=O)c3ccc(OC)cc3)c(=O)c3cc4c(cc32)OCCO4)cc1,"inconclusive: 39.8 µM [inhibitor, single point]",–
Cc1nc2c(-c3ccccc3)c(C)nn2c(C)c1CCC(=O)N1CCN(c2ccccc2)CC1,"inconclusive: 28.2 µM [inhibitor, single point]",–
Cc1c(C(=O)N(C)C)sc2c1c(=O)n(-c1ccc(F)cc1)c(=O)n2Cc1cc(=O)n2ccccc2n1,inactive,–
C=C1CCC2C(C)(C)CC(=O)CC2(C)C1CCC(C)CCO (stereo not given),"inconclusive: 5.62 µM [activator, partial curve, poor fit]",–
Cc1cc2nn(-c3ccc(F)cc3)nc2cc1NC(=O)c1ccc(OC(C)C)cc1,inactive,–
Cc1ccc2nc(Cl)c3cc(C(=O)N(C)C4CCCCC4)sc3c2c1,"inconclusive: 22.4 µM [inhibitor, partial curve, poor fit]",–
CC(CNC(=O)Cn1ccc2cc(S(=O)(=O)N3CCCCC3)ccc21)c1ccccc1 (stereo not given),"inconclusive: 11.2 µM [inhibitor, partial curve, poor fit]",–
CC(C)(C)c1ccc(C(O)CCCN2CCC(C(O)(c3ccccc3)c3ccccc3)CC2)cc1 (stereo not given),"inconclusive: 28.2 µM [inhibitor, partial curve]",–
Cc1cccn2cc(-c3cccc(NS(=O)(=O)c4ccc(Cl)c(Cl)c4)c3)nc12,"inconclusive: 44.7 µM [inhibitor, single point]",–
COc1cc2c(cc1O)C1(Cc3ccc4c(c3C1=O)OCO4)N(C)CC2 (stereo not given),inactive,–
COc1cccc(CNCCSc2nnnn2C)c1OCc1ccc(Cl)cc1Cl,"inconclusive: 44.7 µM [inhibitor, single point]",–
COc1ccccc1CNC(=O)Cn1c(=O)oc2cc(S(=O)(=O)N3CCC(C)CC3)ccc21,inactive,–
CCCCOc1ccc(C2c3c(-c4ccccc4O)n[nH]c3C(=O)N2Cc2ccncc2)cc1OC (stereo not given),"inconclusive: 31.6 µM [inhibitor, partial curve]",–
CCN(CCCNC(=O)c1cc2c(=O)[nH]c3ccccc3c2s1)c1ccccc1,inactive,–
CCC(=C(c1ccc(O)cc1)c1ccc(OCCNC)cc1)c1ccccc1,inactive,–
CCOc1ccc(C(=O)c2cn(CC(=O)Nc3cc(OC)cc(OC)c3)c3ccc(F)cc3c2=O)cc1,inactive,–
Nc1cccc(CNC(=O)c2ccc(Oc3ccc(OCc4cccc(F)c4)cc3)nc2)c1,inactive,–
Cc1ccc(NC(=O)CCn2c(=O)c3cccn3c3ccccc32)cc1Cl,"inconclusive: 11.2 µM [inhibitor, single point]",–
COc1ccc(OCC2c3cc(OC)c(OC)cc3CCN2C(=O)c2c(F)cccc2F)cc1 (stereo not given),"inconclusive: 39.8 µM [inhibitor, single point]",–
CCCCNC(=O)c1cn(C)c2ccc(S(=O)(=O)N3CCCC3)cc2c1=O,"inconclusive: 35.5 µM [inhibitor, partial curve, poor fit]",–
CC1CCCCN1C(=O)CSc1c2c(nc3cc(Cl)ccc13)CCCC2 (stereo not given),"inconclusive: 39.8 µM [inhibitor, single point]",–
CCOCCn1c(=O)c2c(nc3n2CCN3c2ccc(C)c(C)c2)n(C)c1=O,"inconclusive: 0.0224 µM [inhibitor, full curve, poor fit]",–

Compound,Potency,"activity change, negative = inhibition"
COc1ccc(OC)c(NC(=O)Cn2cnc3onc(-c4ccc(Cl)cc4)c3c2=O)c1,inactive,–
Cc1ccc(C)c(-n2nnc(C(=O)Nc3ccc(Br)cc3)c2C)c1,inactive,–
Cc1cn2c(=O)cc(COC(=O)c3ccc(NC(=O)C(C)Oc4ccccc4)cc3)nc2s1 (stereo not given),"inconclusive: 0.316 µM [inhibitor, partial curve, poor fit]",–
COc1cc(NC(C)CCCN)c2ncccc2c1 (stereo not given),"inconclusive: 2.19 µM [inhibitor, full curve]",–
O=C(Nc1cc(Cl)cc(Cl)c1)c1cc(S(=O)(=O)N2CCC3(CC2)OCCO3)ccc1F,"inconclusive: 44.7 µM [inhibitor, single point]",–
CCOc1ccc(Br)cc1S(=O)(=O)Nc1cccc(-c2ccc(OC)nn2)c1,"inconclusive: 28.2 µM [inhibitor, partial curve, poor fit]",–
CC1CCCN(CCCNC(=O)c2cc3c(Cl)nc4ccccc4c3s2)C1 (stereo not given),inactive,–
Cc1ccc(SCC(=O)Nc2ccc3oc(-c4ccccc4F)nc3c2)cc1,"inconclusive: 28.2 µM [inhibitor, partial curve]",–
Cc1cc(Br)cc2c1N(Cc1ccccc1OC(C)C)C(=O)C2=O,"inconclusive: 22.4 µM [inhibitor, partial curve, poor fit]",–
COc1ccc(CCNC(=O)c2cc(=O)c3ccc(C)cc3o2)cc1OC,"inconclusive: 0.251 µM [inhibitor, partial curve, poor fit]",–
Cc1cc(Cl)ccc1NC(=O)CN1C(=O)COc2ccc(S(=O)(=O)Nc3ccccc3)cc21,"inconclusive: 39.8 µM [inhibitor, partial curve]",–
O=C(COc1ccc(F)cc1)Nc1nnc(SCc2cc(=O)n3ccccc3n2)s1,"inconclusive: 39.8 µM [inhibitor, partial curve, poor fit]",–
COc1ccc(C)cc1NC(=O)C(Cc1ccccc1)NS(=O)(=O)c1ccc(Br)s1 (stereo not given),inactive,–
O=C(c1cccc(Cl)c1)N1c2ncnn2C2(CCCCC2)[C@@H]2CCCC[C@@H]21,"inconclusive: 35.5 µM [inhibitor, partial curve, poor fit]",–
CC(C)(N)C(=O)N[C@H](COCc1ccccc1)C(=O)N1CCC2(CC1)CN(S(C)(=O)=O)c1ccccc12,inactive,–
Cc1ccc(NC(=O)c2nnn(Cc3cccc(C(F)(F)F)c3)c2N)c(C)c1,inactive,–
CC(C)(Sc1ccc(CCN(CCCCC2CCCCC2)C(=O)NC2CCCCC2)cc1)C(=O)O,"inactive and active: 25.1 µM and inconclusive: 25.1 µM [inhibitor, partial curve, poor fit]",–
COc1ccc(-c2cc(C(F)(F)F)nc(NCc3ccc(Cl)cc3)n2)cc1,"inconclusive: 31.6 µM [inhibitor, partial curve, poor fit]",–
COc1cccc(Cc2nc3ccccc3nc2SCC(=O)N2CCN(c3ccccc3)CC2)c1,inactive,–
CSc1ccc2c(c1)N(CCC1CCCCN1C)c1ccccc1S2 (stereo not given),"inconclusive: 22.4 µM [inhibitor, partial curve, poor fit]",–
O=C(Nc1ccc(Br)cc1F)C(NS(=O)(=O)c1cccc2nsnc12)c1ccccc1 (stereo not given),"inconclusive: 31.6 µM [inhibitor, single point]",–

# Reference: PubChem BioAssay AID1347055 (National Center for Advancing Translational Sciences (NCATS), 2019)
